A lower IC50 marks a more sensitive line; a limit (>, <) means that the fit lies beyond the doses tested. AUC sums up the same curve from the lowest dose to the 256-fold higher top dose; it is 1 without any effect and falls as sensitivity rises. For part of these data: A top dose marked as inferred was derived from the fitted curves, not read from the paper. For part of these data: Where an entry number is given, a second screen of the drug exists; the two often differ.
How the values were obtained:
Assay in all cases: Viability of human cancer cell lines after 72 h of drug (GDSC screen)
Epothilone B = compound: C/C(=C\c1csc(C)n1)[C@@H]1C[C@@H]2O[C@]2(C)CCC[C@H](C)[C@H](O)[C@@H](C)C(=O)C(C)(C)[C@@H](O)CC(=O)O1 [Epothilone B]; conditions: top dose 0.032 µM; top dose inferred
Method: (§1)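 Human cancer cell lines in 384-well plates, medium with 10% serum, drug for 72 h over a 256-fold dose range (nine 2-fold or five 4-fold steps up to the top dose). Adherent lines were fixed and stained with the nucleic acid dye Syto60, suspension lines read with resazurin; signal relative to control wells, capped at 0 and 100%. One two-parameter sigmoid per drug and line, fitted in a mixed model over all curves with the slope shared within a line.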

PHA-793887 = compound: CC(C)CC(=O)Nc1n[nH]c2c1CN(C(=O)C1CCN(C)CC1)C2(C)C [PHA-793887]; conditions: top dose 10.24 µM
Method: as §1

PLX4720 = compound: CCCS(=O)(=O)Nc1ccc(F)c(C(=O)c2c[nH]c3ncc(Cl)cc23)c1F [PLX4720]; conditions: top dose 10 µM
Method: as §1

Pyrimethamine = compound: CCc1nc(N)nc(N)c1-c1ccc(Cl)cc1 [Pyrimethamine]; conditions: top dose 20 µM; top dose inferred
Method: as §1

AZD-0530 = compound: CN1CCN(CCOc2cc(OC3CCOCC3)c3c(Nc4c(Cl)ccc5c4OCO5)ncnc3c2)CC1 [AZD-0530]; conditions: top dose 2 µM
Method: as §1

Y-39983 = compound: C[C@@H](N)c1ccc(C(=O)Nc2ccnc3[nH]ccc23)cc1 [Y-39983]; conditions: top dose 20 µM; top dose inferred
Method: as §1

Imatinib = compound: Cc1ccc(NC(=O)c2ccc(CN3CCN(C)CC3)cc2)cc1Nc1nccc(-c2cccnc2)n1 [Imatinib]; conditions: top dose 2 µM
Method: as §1

TPCA-1 = compound: NC(=O)Nc1sc(-c2ccc(F)cc2)cc1C(N)=O [TPCA-1]; conditions: top dose 20 µM
Method: as §1

[1] = screen: GDSC drug entry 1371, top dose inferred

Cell Line VA-ES-BJ (soft tissue, adherent) has an AUC (Epothilone B) of 0.57, an IC50 (Epothilone B) of 0.00313 µM and an AUC (PHA-793887) of 0.897. It also gave an IC50 (PHA-793887) of over 10.2 µM, an AUC (PLX4720; screen: GDSC drug entry 1036) of 0.866 and an IC50 (PLX4720; screen: GDSC drug entry 1036) of 9.76 µM. It also gave an AUC (PLX4720; [1]) of 0.912, an IC50 (PLX4720; [1]) of over 10 µM and an AUC (Pyrimethamine) of 0.824. It also gave an IC50 (Pyrimethamine) of 12.7 µM, an AUC (AZD-0530) of 0.95 and an IC50 (AZD-0530) of over 2 µM. For the same cell line, the AUC (Y-39983) was 0.98, the IC50 (Y-39983) was over 20 µM and the AUC (Imatinib) was 0.98. It also gave an IC50 (Imatinib) of over 2 µM, an AUC (TPCA-1) of 0.957 and an IC50 (TPCA-1) of over 20 µM.
